# Data taken from paper PMC4336329 (PLoS ONE, 2015).
# About 2,200 (0.71%) of roughly 310,000 compounds showed an effect of 50% or more. Effects have a minus sign here. This is one part of the list.
# Biological target: human ether-à-go-go-related gene (hERG) potassium channel (human, UniProt Q12809)
# Experiment: primary screen, population patch clamp on CHO cells stably expressing hERG
# Chain of human ether-à-go-go-related gene (hERG) potassium channel (Q12809 whole entry, looked up): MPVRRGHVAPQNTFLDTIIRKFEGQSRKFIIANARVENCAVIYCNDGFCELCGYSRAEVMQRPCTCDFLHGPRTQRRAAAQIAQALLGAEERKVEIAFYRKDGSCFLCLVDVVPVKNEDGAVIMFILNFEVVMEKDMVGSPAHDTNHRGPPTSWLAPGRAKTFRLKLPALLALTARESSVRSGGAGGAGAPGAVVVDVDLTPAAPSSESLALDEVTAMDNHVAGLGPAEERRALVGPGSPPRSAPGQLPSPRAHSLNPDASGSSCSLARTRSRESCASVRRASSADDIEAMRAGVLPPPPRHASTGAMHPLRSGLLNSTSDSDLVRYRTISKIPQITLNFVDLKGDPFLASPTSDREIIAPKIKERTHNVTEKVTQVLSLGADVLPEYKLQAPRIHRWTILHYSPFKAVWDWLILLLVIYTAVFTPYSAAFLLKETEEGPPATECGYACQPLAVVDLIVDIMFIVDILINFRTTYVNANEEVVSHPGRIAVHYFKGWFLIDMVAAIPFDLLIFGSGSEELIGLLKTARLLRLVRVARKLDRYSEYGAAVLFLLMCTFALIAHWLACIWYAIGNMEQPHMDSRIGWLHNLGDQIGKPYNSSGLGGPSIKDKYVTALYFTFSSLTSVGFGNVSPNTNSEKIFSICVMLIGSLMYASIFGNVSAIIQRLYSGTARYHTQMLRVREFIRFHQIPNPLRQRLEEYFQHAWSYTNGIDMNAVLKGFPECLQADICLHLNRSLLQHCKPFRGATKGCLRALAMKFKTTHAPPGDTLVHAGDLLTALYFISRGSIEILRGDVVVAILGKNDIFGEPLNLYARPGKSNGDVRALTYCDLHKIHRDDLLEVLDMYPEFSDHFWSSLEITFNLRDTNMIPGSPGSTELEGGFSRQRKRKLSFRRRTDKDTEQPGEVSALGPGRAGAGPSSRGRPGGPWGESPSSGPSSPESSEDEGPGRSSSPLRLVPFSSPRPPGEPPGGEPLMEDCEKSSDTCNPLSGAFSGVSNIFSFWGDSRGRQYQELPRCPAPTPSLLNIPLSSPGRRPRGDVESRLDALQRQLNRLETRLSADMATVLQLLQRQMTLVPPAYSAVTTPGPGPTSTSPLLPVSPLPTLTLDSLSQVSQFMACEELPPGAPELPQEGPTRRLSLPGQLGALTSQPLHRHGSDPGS
row,Compound,"hERG current change (%, negative = inhibition) at 1uM"
1,COc1ccc(-c2csc(NC(=O)C3CC(=O)N(Cc4ccco4)C3)n2)cc1 (centres unmarked),6.42%
2,CCCCCCCNC(=O)C1(CC2CC(c3ccc(Cl)cc3)=NO2)CCN(C(=O)c2ccccc2)CC1 (centres unmarked),7.86%
3,COc1ccc(C(=O)c2coc3ccc(O)c(CN(C)C)c23)cc1,-29.3%
4,COCCCNC(NC(=O)c1ccc(C)cc1)C(Cl)(Cl)Cl (centres unmarked),4.05%
5,CCOC(=O)c1ccccc1NC(=O)CN1CCC(n2nnc3cc(C(F)(F)F)ccc32)CC1,7.58%
6,CCOc1ccc(C(=O)NCC(=O)OCCN2C(=O)c3ccccc3C2=O)cc1OCC,5.56%
7,COc1cc2[nH]c(=O)n(CCC(=O)NCCCN3CCN(c4ccccc4F)CC3)c(=O)c2cc1OC,0.776%
8,CCCCN1C(=S)SC(C)(C)C1/[N+]([O-])=C/c1ccc(S(=O)(=O)NC)cc1 (centres unmarked),10.5%
9,CCOc1cc(/C=N/NC(=O)c2cc(-c3cccnc3)nc3ccccc23)ccc1O,15.9%
10,O=C(O)CCCC(=O)Nc1ccccc1Oc1ccccc1,7.99%
11,COc1ccc(N/C=C2\CCc3ccccc3C2=O)cc1,9.52%
12,Cc1ccccc1N1C(=O)C(Cl)=C(N2CCCCCC2)C1=O,4.97%
13,Cc1ccc2c(=O)cc(C(=O)NCc3ccccc3)oc2c1C,12.1%
14,CCCSc1nnc(-c2c[nH]c3ccccc23)n1C,9.4%
15,COC(=O)[C@@H]1C(c2c(OC)cc(OC)cc2OC)=NO[C@H]1C(=O)OC,12.4%
16,COCCn1nnnc1C(c1ccc(OC)c(OC)c1)N1CCN(c2nc3ccccc3s2)CC1 (centres unmarked),2.83%
17,CCOC(=O)C1=C(C)N(CC)C(=S)NC1c1ccccc1OC(F)F (centres unmarked),4.8%
18,O=c1c2ccccc2nc2n1C(CSCc1cccc(C(F)(F)F)c1)CS2 (centres unmarked),-11.3%
19,COc1ccccc1NC(=O)COC(=O)C1C2CC3OC(=O)C1C3C2 (centres unmarked),14.4%
20,CCC(C(=O)OC)n1cnc2c(nnn2-c2ccc(C)cc2)c1=O (centres unmarked),3.12%
21,COCc1cc(Sc2cccc(Cl)c2Cl)nc(-c2ccccc2)n1,9.46%
22,CC1=C(C(=O)OCc2ccccc2)C(c2ccccc2OC(F)F)NC(=O)N1 (centres unmarked),-0.0598%

row,Compound,"hERG current change (%, negative = inhibition) at 1uM"
1,Cc1cc(NC(=O)c2ccccc2)ncc1NC(=O)c1ccco1,11.8%
2,COc1cccc(NC(=O)CSc2nnc(CNC(=O)c3ccco3)n2C)c1,1.34%
3,CCN(CC(=O)NCc1ccc(F)cc1)C(=O)CCNS(=O)(=O)c1cccc(C)c1,-15.2%
4,CCCCCC(CC(=O)NO)C(=O)NC(C(=O)N1CCCC1CO)C(C)C (centres unmarked),13.7%
5,O=C(c1cc(COc2ccccc2)on1)N1CCCC(OCc2cccnc2)C1 (centres unmarked),8.98%
6,CCOc1ccc(NC(=S)N(CCc2c(C)[nH]c3ccc(C)cc23)Cc2ccco2)cc1,7.46%
7,O=C(O)c1ccc(NC(=O)c2cccc(N3C(=O)C4C5CCC(C5)C4C3=O)c2)cc1 (centres unmarked),19.5%
8,O=C(O)C1=CC[C@@H](c2ccc(Cl)cc2)N(S(=O)(=O)c2ccc(Cl)cc2)[C@H]1c1ccccc1,5.54%
9,O=C(CCN1C(=O)COc2ccccc21)NCCC1=CCCCC1,6.68%
10,C(#CCN1CCCC1)CC(c1ccccc1)c1ccccc1.Cl,-23.5%
11,CCc1nc(SCC(=O)Nc2cccc(C(F)(F)F)c2)c2c(=O)n(C)c(=O)n(C)c2n1,7.08%
12,COc1c(C(=O)Nc2ccccc2N2CCOCC2)cc2ccccc2c1Br,24.1%
13,CC1CN(CCOc2ccc(Cl)c(Cl)c2)CC(C)O1.O=C(O)C(=O)O (centres unmarked),3.66%
14,CSc1nnc(Cn2c(=O)sc3ccccc32)n1CCc1ccccc1,0.53%
15,COc1cc2c(cc1OC)CN(C(=S)Nc1cccc(Cl)c1C)CC2,2%
16,CCOCCCn1c(SCC(=O)NC(C)(C)C)nc2ccccc2c1=O,10.9%
17,CCn1cc(C(=O)N[C@@H](CCSC)C(=O)NCCO)c(=O)c2cc3c(cc21)OCO3,12.8%
18,O=C(COc1ccc(Cl)cc1)Nc1nc(-c2ccncc2)cs1,12.9%
19,Cc1cccc(NC(=S)NC2CCCC2)n1,-1.16%
20,O=C(Nc1c2c(nn1-c1cccc(Cl)c1)CS(=O)(=O)C2)C1CC1,-16.9%
21,COCCNC(=O)/C(C#N)=C/c1cc(C(C)C)c(OC)cc1C,17.1%
22,Cl.O=C(CN1CCCCCC1)N1c2ccccc2Sc2ccc(C(F)(F)F)cc21,7.57%

row,Compound,"hERG current change (%, negative = inhibition) at 1uM"
1,CCNC(=S)N(Cc1c(C)noc1C)c1ccccc1,1.7%
2,COc1ccc(CN2CCNC(=O)C2CC(=O)NC2Cc3ccccc3C2)c(OC)c1 (centres unmarked),29.3%
3,CCCCOC(=O)c1ccc(NC(=O)C(=O)CC(=O)c2ccc(OC)cc2)cc1,6.37%
4,CC(C)NC(=O)CC(=O)N/N=C/c1ccccc1F,15.8%
5,CCOC(=O)C1=C(N)OC2=C(C(=O)CC(C)(C)C2)C12C(=O)Nc1ccccc12 (centres unmarked),18.9%
6,CCOc1ccccc1C1C(C(N)=O)=C(C)Nc2nc(-c3ccccc3Cl)nn21 (centres unmarked),6.39%
7,Cc1ccc(NC(=O)CSC2=C(C#N)C(c3ccc4c(c3)OCO4)C3=C(CCCC3=O)N2)c(C)c1 (centres unmarked),-12.8%
8,CCc1ccc(N2C(=O)NC(=O)C(CCc3ccncc3)(CCc3ccncc3)C2=O)cc1,-41.1%
9,O=S(=O)(c1cccc(-c2csc(N/N=C/c3ccco3)n2)c1)N1CCOCC1,11.8%
10,O=c1[nH]c(-c2ccccc2)c(-c2ccccc2)[nH]1,13.3%
11,CC(C)(CN1CCCC1)NS(=O)(=O)c1ccc(Cl)cc1,26.4%
12,COC(=O)c1sc(S(=O)(=O)N2CCC(C(=O)O)CC2)c(C(=O)OC)c1C,8.84%
13,O=C(CSc1nnc(CNC(=O)c2ccccc2F)o1)NC1CCCCC1,22.7%
14,CCOC(=O)Cc1[nH]nc2c1C(c1ccsc1)C(C#N)=C(N)O2 (centres unmarked),4.93%
15,CC(C)c1ccc(NC2CCCN(C(=O)c3ccc4nccnc4c3)C2)cc1 (centres unmarked),4.9%
16,COc1ccc(-c2nc(Cn3c(SCc4ccccc4F)nc4ccncc43)c(C)o2)cc1,9.27%
17,COc1cccc(C2CC(c3cccs3)=NN2C(=O)CSc2nc3ccccc3o2)c1OC (centres unmarked),9.23%
18,O=C(c1c(F)cccc1F)N1CCCC(c2nc(-c3ccc(Cl)cc3)no2)C1 (centres unmarked),6.25%
19,O=c1c2ccccc2[se]n1-c1ccccc1,22.4%
20,CCn1nc(C(=O)O)c(=O)c2cc3c(cc21)OCO3,12%
21,Cn1c(CCC(=O)O)nc2cc(S(=O)(=O)N3CCCCC3)ccc21,7.58%
22,COCCn1c(Cc2ccccc2)nnc1SCc1nc2ccccc2c(=O)[nH]1,4.76%

row,Compound,"hERG current change (%, negative = inhibition) at 1uM"
1,O=C(O)/C=C/C(=O)Nc1c(F)cccc1F,9.63%
2,Cl.O=C(COc1ccc(Cl)cc1Cl)NCCCn1ccnc1,-36.2%
3,O=C(CNC(=O)c1ccc(F)cc1)N/N=C/c1cn[nH]c1-c1ccccc1,11.1%
4,COc1ccc(CCNC(=O)C2CC2)cc1,8.37%
5,O=C(Nc1ccccc1)c1ccc2c(c1)OCCO2,13.1%
6,Cc1c(NS(=O)(=O)c2cc(C(=O)NCCN(C)C)ccc2Cl)c(=O)n(-c2ccccc2)n1C.Cl,13.8%
7,COc1ccc(C(C(=O)NC2CCCC2)N(C(=O)c2snc(-c3ccc(F)cc3)c2N)c2ccccc2)cc1 (centres unmarked),-6.81%
8,COc1ccc(C2C(C(=O)Nc3ccc(F)cc3)=C(C)Nc3nc(CCCO)nn32)cc1 (centres unmarked),13.9%
9,Cc1ccccc1C(=O)Nc1ccc(C(=O)NNC(=O)CCCOc2ccc(Cl)cc2Cl)cc1,15.3%
10,Cl.Cn1c(C(=O)N2CCN(Cc3ccc4c(c3)OCO4)CC2)cc2sccc21,9.32%
11,CC1=CC(C)[C@@H]2COC(c3ccc(O)cc3)[C@H]1C2C (some centres unmarked),11.5%
12,CC(C)N1CCc2c(sc(NC(=O)CCS(=O)(=O)c3ccccc3)c2C#N)C1.Cl,3.7%
13,CCC1=C2CC[C@H]3C(=O)N(CC)C(=O)[C@H]3[C@H]2[C@@]2(Cc3ccccc3)C(=O)N(Cc3ccccc3)C(=O)N2C1=O,4.99%
14,CCC(C)(C)c1ccc(OC(=O)c2cccnc2Cl)cc1,4.65%
15,CCOP(=O)(OCC)/C(C#N)=C/c1ccoc1,11%
16,CCC(=O)Nc1ccc(Nc2ccccc2)cc1,13.7%
17,CC1(C)CC(=O)C/C(=N\NC(=S)NCc2ccccc2)C1,12.6%
18,CC(=O)c1cccc(NC(=O)NC(C)c2ccc3c(c2)OCO3)c1 (centres unmarked),5.43%
19,O=C1c2ccccc2C(=O)N1CCCc1c[nH]c2ccccc12,-2.92%
20,O=C(O)c1ccccc1-c1ccccc1C(=O)NNc1ccccc1,9.34%
